SMILES strings stand for the structures. Among all 48,000 compounds or so, about 450 (0.94%) were called active. About 19% were inconclusive and are not listed. Calls follow the shape of the dose curve; as a rule, active = well fitted inhibition curve with a large enough effect; inconclusive = small, poorly fitted or top-dose-only effect; inactive = no such curve, though single readings can be large or run the other way. Some of the results follow.

The experiment in a line: Primary qHTS for Identification of Small Molecule Inhibitors of Huntingtin Promoter Activity. Also: nearly all actives have a fitted effect of over 50% in size. The following applies: HEK293 HTT promoter firefly luciferase reporter (activity 0% = vehicle and -100% = no light), 24 h; series mostly up to 57.5 µM; activity change, negative = inhibition: at the top concentration. From the text: Assay Provider: Russell L. Margolis M.D.
Department Neurology, Johns Hopkins University School of Medicine, Baltimore, MD
Huntington's Disease (HD) is a neurodegenerative disorder caused by a CAG repeat expansion in exon 1 of huntingtin (HTT). While there are currently no disease-modifying treatments for HD, recent efforts have focused on development of nucleotide-based therapeutics to lower HTT expression. As an alternative to siRNA or oligonucleotide methods, we hypothesized that suppression of HTT expression might be accomplished by small molecules that either (1) directly decrease HTT expression by suppressing HTT promoter activity or (2) indirectly decrease HTT expression by increasing the promoter activity of HTT-AS, the gene antisense to HTT that appears to inhibit expression of HTT.
We developed and employed a high throughput screen for modifiers of HTT and HTT-AS promoter activity using luminescent reporter HEK293 cells; of the 52,041 compounds tested, we identified 898 replicable hits. We used a rigorous stepwise approach to assess compound toxicity and the capacity of the compounds to specifically lower huntingtin protein in 5 different cell lines, including HEK293 cells, HD lymphoblastoid cells, mouse primary neurons, HD iPSCs differentiated into cortical-like neurons, and HD hESCs. We found no compounds which were able to lower huntingtin without lowering cell viability in all assays, though the potential efficacy of a few compounds at non-toxic doses could not be excluded.
SEQUENCE No. (1, 2, 3, etc.); […] (e.g., Cells, Incubation, Reagent, etc.); VALUE and DESCRIPTION.
1; Reagent; 4 uL; 2,500 Hek293 luciferase reporter cells per wells
3; Compound; 23 nL; Control inhibitor / compound library
5; Reagent; 2.5 uL; Firefly Luc reagent; Dual-Glo Luciferase Reporter Assay System (Promega)
6; Time; 10 min; room temperature incubation
7; Detection; Luminescence; FLuc
NOTES (numbers refer to sequence above)
1; High-throughput screening, measuring luminescence from a Hek293 luciferase reporter, was performed in 1,536 well white-walled tissue-culture treated plates. 2,500 cells were plated in 4 µL of Opti-MEM per well using a Multidrop Combi Reagent Dispenser (ThermoFisher).
2; Assay plates were cultured for 24 hours.
3; Control inhibitor (PTC124; final concentration of 50 uM) and compound library (at final concentrations of 460 nM - 57.5 uM) were added to the assay plate using the Kalypsis Pintool Robotic System equipped with 1536 pinheads.
4; Cells were then incubated for 24 hours at 37 degrees C prior to luminescence measurements.
5; In all cases, luminescence was measured using the Dual-Glo Luciferase Reporter Assay System (Promega) following the manufacturer's instructions.
6; Room temperature incubation.
7; Luminescence signal was obtained using the PerkinElmer ViewLux plate reader. Results were normalized to vehicle control (0% activity) and zero RLU (-100% activity).
For orientation: Quantitative high-throughput screening tests each substance at several concentrations.
Take `CC(=O)c1ccc2c(c1)N(CCCN1CCC(CCO)CC1)c1ccccc1S2`: the “activity change, negative = inhibition” value was inactive: -1%.
For the molecule `Cc1cccc(C(=O)OCc2cc(=O)n3nc(-c4cccs4)sc3n2)c1`, the “activity change, negative = inhibition” value is inactive: -11.1%.
The figure for `CCCSc1nnc2n(-c3cccc(C)c3)c(=O)c3c4c(sc3n12)CCCC4` is inactive: -3.04%; for `Cc1ccc(C)c(NC(=O)Cn2c(=O)n(Cc3ccc4c(c3)OCO4)c(=O)c3ccccc32)c1` it is inactive: -9.45%.
For the molecule `Cc1ccc(-n2ncc(C(=O)NCCCN3CCN(C)CC3)c2C2CCN(C(=O)OC(C)(C)C)CC2)c(C)c1`, the “activity change, negative = inhibition” value was inactive: -7.43%.
The figure for `CC(C)(C)OC(=O)N1CCC(c2c(C(=O)N3CCCCC3)cnn2-c2ccc(F)cc2F)CC1` is inactive: -14.2%.
As to `O=C(CCn1cnc2onc(-c3ccc(F)cc3)c2c1=O)N1CCN(c2ccccc2F)CC1`, the “activity change, negative = inhibition” value is inactive: 2.21%.
Take `Cc1ccc2c(CC(=O)N(Cc3cccc(Cl)c3)C3CCS(=O)(=O)C3)coc2c1` (configuration not stated): the “activity change, negative = inhibition” value is inactive: -31.7%.
As for `CNS(=O)(=O)c1cn(CC(=O)N2CCN(c3ccccc3OC)CC2)cc1S(=O)(=O)NC`, the “activity change, negative = inhibition” value was inactive: 5.37%.
For the molecule `CCOC(=O)C1CCCN(C(=O)c2ccc(NC(=O)c3nsc4ccccc34)cc2)C1` (configuration not stated), the “activity change, negative = inhibition” value was inactive: 14.6%.
Turning to `COC(=O)c1ccccc1NC(=O)Cn1c(=O)cc(C)c2c(C)nn(-c3cccc(Cl)c3C)c21`, the “activity change, negative = inhibition” value is inactive: 3.34%.
Turning to `COc1ccc(Cl)cc1NC(=O)Cn1cnc2sc(C)c(S(=O)(=O)N3CCN(c4ccccc4OC)CC3)c2c1=O`, the “activity change, negative = inhibition” value was inactive: -4.81%.
Take `O=C(CC1Nc2cccc3cccc(c23)NC1=O)Nc1ccc(F)cc1` (configuration not stated): the “activity change, negative = inhibition” value is inactive: 0%.
Take `N#Cc1cccc(NC(=O)CCNS(=O)(=O)c2ccc3c(c2)CCN3C(=O)C2CC2)c1`: the “activity change, negative = inhibition” value is inactive: -6.05%.
Take `O=C(Nc1nnc(S(=O)(=O)N2CCc3ccccc32)s1)c1ccccc1Cl`: the “activity change, negative = inhibition” value is inactive: -25.1%.
Take `CCOC(=O)c1c(C)[nH]c(CCC(=O)NCCCN2CCN(c3ccccc3F)CC2)c1C`: the “activity change, negative = inhibition” value is inactive: -14.2%.
The figure for `Cc1cc(C)cc(-n2ccnc2SCC(=O)Nc2nc3ccc(C)cc3s2)c1` is inactive: -1.51%; for `COc1ccc(-c2nc(Cn3c(=O)cc(C)c4c(C)nn(-c5ccccc5)c43)c(C)o2)c(OC)c1` it is inactive: -17.3%; for `CN(C)c1ccc(CNC(=O)Cn2ccc3cc(S(=O)(=O)N4CCCCCC4)ccc32)cc1` it is inactive: -27.5%.
As for `c1coc(-c2nc3ccccn3c2Nc2ccc3c(c2)OCCO3)c1`, the “activity change, negative = inhibition” value is inactive: -7.67%.
As to `CCOc1ccc(NC(=O)CCS(=O)(=O)c2ccc3nc(C)sc3c2)cc1`, the “activity change, negative = inhibition” value was inactive: -1.46%.
For `Cc1ccc(Cn2c(SCc3ccc(C(=O)NCCc4ccccc4)cc3)nc3ccncc32)cc1`, the “activity change, negative = inhibition” value was inactive: -23.9%.
Turning to `COc1ccc(-n2c(=O)c3sc4ccccc4c3n(CC(=O)N3CCCC3)c2=O)cc1`, the “activity change, negative = inhibition” value was inactive: -9.51%.
Turning to `CCn1cc(S(=O)(=O)c2cccc(C)c2)c(=O)c2cc(F)c(N3CCCCC3C)cc21` (configuration not stated), the “activity change, negative = inhibition” value is inactive: -10.9%.
Regarding `COc1ccc(-c2cn3c(n2)sc2cc(C(=O)Nc4ccccc4F)ccc23)cc1`, the “activity change, negative = inhibition” value is inactive: -0.363%.
With `CCc1ccc2occ(CC(=O)Nc3c(C(=O)Nc4ccc(Cl)cc4)oc4ccccc34)c2c1`, the “activity change, negative = inhibition” value was inactive: -11%.
Consider `CN(C)CCNC(=O)c1ccc2nc(CCc3ccccc3)oc2c1`, for which the “activity change, negative = inhibition” value is inactive: 8.04%.
Turning to `Cc1ccc(CNC(=O)C(=O)NCC(c2cccs2)S(=O)(=O)c2cccs2)cc1` (configuration not stated), the “activity change, negative = inhibition” value was inactive: -28.3%.
On to `CCSc1nc2c([nH]c3ccccc32)c(=O)n1-c1ccc(OC)cc1`, for which the “activity change, negative = inhibition” value is inactive: 0.33%.
The figure for `O=C(O)CCCC(=O)N1CCc2cc(S(=O)(=O)NCc3ccccc3)ccc21` is inactive: -1.89%.
Turning to `Cc1cccc(NC(=O)CCNS(=O)(=O)c2ccc3c(c2)CCCC(=O)N3)c1C`, the “activity change, negative = inhibition” value is inactive: -11.4%.
The figure for `CC1CCCN(c2ncnc3c2nc2n3CCCCC2)C1` (configuration not stated) is inactive: 36.2%.
With `CN(C)c1ccc(CNc2nc(-c3ccco3)nn2S(C)(=O)=O)cc1`, the “activity change, negative = inhibition” value was inactive: 36.8%.
Consider `CN(C)c1ccc(NC(=O)Cn2c(SCc3ccc(F)cc3)nc3cccnc32)cc1`, for which the “activity change, negative = inhibition” value is inactive: -19.6%.
For `Cc1ccccc1Cn1c(=O)n(CCCCC(=O)NCCc2ccccc2)c(=O)c2ccccc21`, the “activity change, negative = inhibition” value was inactive: 1.55%.
With `CCc1ccc(NC(=O)CSC2=Nc3ccccc3C3=NC(CC(=O)NCc4ccc5c(c4)OCO5)C(=O)N23)cc1` (configuration not stated), the “activity change, negative = inhibition” value was inactive: 0%.
To `CCCC(=O)Nc1ccc(NC(=O)c2sc3ccccc3c2Cl)cc1` belongs inactive: -13.6%; to `COCCn1c(SCC(=O)c2ccccc2)nc2cc(C(=O)NC3CCCC3)ccc2c1=O`, inactive: -4.2%.
On to `COc1ccc(NC(=O)CN(c2cccc(C)c2C)S(=O)(=O)c2ccccc2)cc1OC`, for which the “activity change, negative = inhibition” value was inactive: -19.9%.
As for `CC(=O)c1cccc(NC(=O)c2noc3c2CC(C)CC3)c1` (configuration not stated), the “activity change, negative = inhibition” value is inactive: 49.6%.
With `CCOC(=O)CSC1=Nc2ccccc2C2=NC(CCC(=O)NCc3ccccc3)C(=O)N12` (configuration not stated), the “activity change, negative = inhibition” value was inactive: -12.2%.
Take `COc1ccc(C(=O)N2CCN(C(=O)COc3ccc(Br)cc3)CC2)cc1OC`: the “activity change, negative = inhibition” value was inactive: -12.8%.
As for `CCCCN(C)CCCNC(=O)Cn1nc(CC)n2c(cc3sc(C)cc32)c1=O`, the “activity change, negative = inhibition” value is inactive: -2.81%.
The figure for `COc1cc2c(=O)c(S(=O)(=O)c3ccc(C)cc3)cn(Cc3cccc(C)c3)c2cc1OC` is inactive: -19.2%; for `CC1CN(C(=O)N2CCC(C(=O)NCCC3=CCCCC3)CC2)c2ccccc2O1` (configuration not stated) it is inactive: 0.0202%.
Turning to `O=C(CSc1nnc(-c2cccs2)o1)Oc1ccc(Cl)cc1`, the “activity change, negative = inhibition” value is inactive: -18.5%.
Turning to `CCCCNC(=O)C1CCCN(c2nnc(C)c3c(C)n(-c4ccc(Cl)cc4)nc23)C1` (configuration not stated), the “activity change, negative = inhibition” value is inactive: -20.2%.
